Consider two molecules from patent publication CN116478288A.

For assay [1], the target named is 人源CD47 (on cells: hCD47-overexpressing CHO-K1; Raji) (human) (UniProt Q08722). Put plainly: flow cytometry on Raji cells (endogenous human CD47); Blank 58.3.
For assay [2] the target is unchanged. Put plainly: flow cytometry, purified antibody 10 ug/ml on CHO-K1 overexpressing human CD47. Background: In flow cytometry, cells or beads pass a laser one at a time.
In assay [3] the target is 食蟹猴CD47 (on overexpressing CHO-K1 cells) (cynomolgus monkey). Put plainly: flow cytometry, purified antibody 10 ug/ml on CHO-K1 overexpressing cynomolgus CD47.
For assay [4], the target named is 人源CD47 (on cells: hCD47-overexpressing CHO-K1; Raji) (human) (UniProt Q08722). Put plainly: flow cytometry on Raji cells, 0.05 ug/ml ID 2 with competitor SIRPα at 5 ug/ml, anti-human Fc-APC.
For assay [5] the target is unchanged. Put plainly: flow cytometry on Raji cells, 0.05 ug/ml ID 2 alone, anti-human Fc-APC (Raji alone 1329.3).

Sequence of UniProt Q08722 (Q08722 19-323): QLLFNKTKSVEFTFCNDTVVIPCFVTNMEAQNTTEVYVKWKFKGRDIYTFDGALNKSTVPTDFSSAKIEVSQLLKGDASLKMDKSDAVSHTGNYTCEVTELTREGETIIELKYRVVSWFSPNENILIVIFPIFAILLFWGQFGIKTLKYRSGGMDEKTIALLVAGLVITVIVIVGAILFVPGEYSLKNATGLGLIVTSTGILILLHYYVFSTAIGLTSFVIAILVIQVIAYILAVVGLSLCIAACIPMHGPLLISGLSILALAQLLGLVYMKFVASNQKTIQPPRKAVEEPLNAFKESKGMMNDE

B1: 人源化抗体ID 5 (antibody, human IgG4 S228P, kappa)
heavy: QVQLVQSGAEVKKPGASVKVSCKASGYTFTSYWMNWVRQAPGQGLEWMGRIDSSDSETHYNQKFKDRVTMTRDTSTSTVYMELSSLRSEDTAVYYCARQGEGLRRSWFPYWGQGTLVTVSSASTKGPSVFPLAPCSRSTSESTAALGCLVKDYFPEPVTVSWNSGALTSGVHTFPAVLQSSGLYSLSSVVTVPSSSLGTKTYTCNVDHKPSNTKVDKRV[human IgG4 Fc with S228P (EU numbers) omitted]
light: DIVMTQSPDSLAVSLGERATINCRASKSVSTSGYSYIHWYQQKPGQPPKLLIYVASNLQSGVPDRFSGSGSGTDFTLTISSVQAEDVAVYYCQHIRELPWTFGQGTKVEIKRTVAAPSVFIFPPSDEQLKSGTASVVCLLNNFYPREAKVQWKVDNALQSGNSQESVTEQDSKDSTYSLSSTLTLSKADYEKHKVYACEVTHQGLSSPVTKSFNRGEC
With B1, the MFI in assay [1] was 12300 MFI; in assay [2], 2140 MFI; in assay [3] it was 1460 MFI.

B2: 人源化抗体ID 2 (antibody, human IgG4 S228P, kappa)
heavy: QVQLVQSGAEVKKPGASVKVSCKASGYTFTSYWMNWVRQAPGQGLEWMGRIDSSDSETHYNQKFKDRVTMTRDTSTSTVYMELSSLRSEDTAVYYCARQGEGLRRSWFPYWGQGTLVTVSSASTKGPSVFPLAPCSRSTSESTAALGCLVKDYFPEPVTVSWNSGALTSGVHTFPAVLQSSGLYSLSSVVTVPSSSLGTKTYTCNVDHKPSNTKVDKRV[human IgG4 Fc with S228P (EU numbers) omitted]
light: DIVMTQSPDSLAVSLGERATINCRASKSVSTSGYSYIHWYQQKPGQPPKLLIYVASNLQSGVPDRFSGSGSGTDFTLTISSVQAEDVAVYYCQHIRELPWTFGQGTKLEIKRTVAAPSVFIFPPSDEQLKSGTASVVCLLNNFYPREAKVQWKVDNALQSGNSQESVTEQDSKDSTYSLSSTLTLSKADYEKHKVYACEVTHQGLSSPVTKSFNRGEC
As to B2, the MFI was determined as 14600 MFI in assay [1]; 1740 MFI in assay [2]; 2420 MFI in assay [3]; 160000 MFI in assay [4]; 262000 MFI in assay [5].
